We go through one molecule from patent publication US20130040845A1 (IMMUNE DISEASE INSTITUTE, published 2013).

The target of assay [1] is T1, human platelet GPIbα (His1 to Arg290) (human, UniProt P07359 17-306).
T1 construct: range 1-290; The numbers 1-290 probably count on the mature protein, not on the precursor entry; also called GP1bα; GP1bα subunit
Kind of assay: optical tweezers, force clamp at 10.05 pN on the tethered A1-GPIbα polypeptide; fast phase of the survival probability versus dwell time.

The target in assay [2] is T1, human platelet GPIbα (His1 to Arg290). Nature of the assay: optical tweezers, force clamp at 10.05 pN on the tethered A1-GPIbα polypeptide; slow phase of the survival probability versus dwell time.
The target is the same in assay [3]. Kind of assay: optical tweezers, force clamp at 10.27 pN on the tethered A1-GPIbα polypeptide; fast phase of the survival probability versus dwell time.
The target is the same in assay [4]. Kind of assay: optical tweezers, force clamp at 10.27 pN on the tethered A1-GPIbα polypeptide; slow phase of the survival probability versus dwell time.
Assay [5] has the same target. Kind of assay: optical tweezers on the tethered A1-GPIbα polypeptide in the presence of botrocetin; zero-force off-rate extrapolated from bond lifetime versus force.
The target is the same in assay [6]. Nature of the assay: optical tweezers on the tethered A1-GPIbα polypeptide in the presence of ristocetin; zero-force off-rate of state 1 extrapolated from bond lifetime versus force.
For assay [7] the target is unchanged. Nature of the assay: optical tweezers on the tethered A1-GPIbα polypeptide in the presence of ristocetin; zero-force off-rate of state 2 extrapolated from bond lifetime versus force.

A word on the koff: it is the rate constant with which the complex falls apart.

T1 sequence (P07359 17-306 limits assumed): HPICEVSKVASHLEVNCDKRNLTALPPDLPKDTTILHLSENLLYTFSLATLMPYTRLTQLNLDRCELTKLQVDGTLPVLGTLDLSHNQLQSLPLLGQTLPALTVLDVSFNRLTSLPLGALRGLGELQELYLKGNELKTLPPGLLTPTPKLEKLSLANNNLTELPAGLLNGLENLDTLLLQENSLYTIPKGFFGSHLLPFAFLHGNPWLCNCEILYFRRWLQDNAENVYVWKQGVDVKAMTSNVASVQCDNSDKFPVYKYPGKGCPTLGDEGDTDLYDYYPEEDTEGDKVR

B1: human VWF A1 domain ([…] with pre-pro-VWF numbering) (receptor)
chain: not shown
notes: range […]; In the assay this domain was not a free protein; It was expressed in HEK293T cells and coupled by disulfides to dsDNA handles; also called von Willebrand factor A1 domain
Consider B1, for which the koff in assay [1] was 1.44 s⁻¹; in assay [2], 0.14 s⁻¹; in assay [3], 1.33 s⁻¹; in assay [4], 0.33 s⁻¹; in assay [5] it was 0.00041 s⁻¹; in assay [6], 0.034 s⁻¹. For the same molecule, in assay [7], the koff is 0.0017 s⁻¹.
